Screen size: about 320,000 compounds; about 9,100 (2.8%) were called active. The shares of active, inactive and inconclusive entries below differ from those in the screen. The call rests on the fitted dose curve; in most records, active means well fitted activation curve with a large enough effect; inconclusive means small, poorly fitted or top-dose-only effect; inactive means no such curve, though single readings can be large or run the other way. Potencies of inconclusive entries are left out as doubtful fits.
experiment: qHTS Assay for Rab9 Promoter Activators; settings: Huh7 Rab9 promoter-luciferase reporter, luminescence, 24 h; series mostly up to 9.22 µM; further: nearly all actives have a fitted effect of over 60% in size
Procedure, shortened: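 Stable Rab9-luc Huh7, 1500 cells/well, 2 h settle; cmpd in DMSO, 24 h, 37 °C/5% CO2; luciferase reagent 10 min RT; luminescence.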
Potency means the concentration at half of the fitted maximal effect; tags describe the fitted curve by direction and shape.

SMILES	Potency
Cc1ccc(-c2cc(C(=O)N3CCC(C)CC3)c3ccccc3n2)cc1	inactive
CCOc1c(OC(C)=O)ccc(/C=C/c2ccc3cccc(OC(C)=O)c3n2)c1[N+](=O)[O-]	inconclusive [activator, single point]
Clc1ccccc1CN1CCN(/N=C/C=C/c2ccco2)CC1	inconclusive [activator, single point]
Cc1ccc(C(=O)c2cncc(Br)c2)cc1	inconclusive [activator, single point]
NNC(=O)c1cccc(COc2ccccc2Br)c1	active: 891 nM
CCC(=O)Nc1cccc(NC(=S)NC(=O)c2ccccc2)c1	inconclusive [activator, single point]
CC(C)CC(=O)N1CCN(S(=O)(=O)c2ccc(C3CCCCC3)cc2)CC1	inactive
COc1ccc(Nc2nc(N)c3ccccc3n2)c(OC)c1	active: 4470 nM
COc1ccc(OC(=O)c2ccc3nsnc3c2)cc1	inactive
O=C(O)c1ccccc1CSc1nc2ccccc2s1	inconclusive [activator, single point]
CCN(CC)c1ccc(NC(=O)c2ccc(Cl)nc2)cc1	inactive
Cc1ccc(C(=O)N/C(N)=N/c2nc3ccccc3o2)cc1	inconclusive [activator, partial curve]
COc1ccc(-c2csc(N3C(=N)SCC3=O)n2)cc1	active: 398 nM
Cc1ccc(NC(=O)c2cccc3ccccc23)cc1	inconclusive [activator, single point]
Nc1nc(SCc2ccccc2)[nH]c(=O)c1-c1ccccc1	inconclusive [activator, partial curve]
CC(=O)N1CC=CC1(CC(C)C)C(=O)NCc1cc(F)cc(C(F)(F)F)c1 (configuration not stated)	inactive
Nc1nc(Nc2ccc(Cl)cc2)nc2ccccc12	active: 501 nM
Cc1cc(C)n2nc(SCC(=O)NC3CCCC(C)C3C)nc2n1 (configuration not stated)	inactive
CCOC(=O)c1sc(=NC(=O)c2cccc(OC)c2)n(C)c1C	active: 1580 nM
O=C(Nc1ccc(NC(=O)c2cccs2)cn1)c1ccco1	active: 316 nM
COc1ccc(OC(=O)c2ccc(OC)c(S(=O)(=O)N3CCOCC3)c2)cc1	inactive

SMILES	Potency
O=C(O)c1ccc(N/N=C/c2ccc(C(F)(F)F)cc2)cc1	inconclusive [activator, partial curve]
CCC(Oc1ccccc1)C(=O)Nc1ccc(-c2nnc(-c3ccco3)o2)cc1 (configuration not stated)	inconclusive [activator, single point]
CC(=O)Nc1ccc(-c2csc(Nc3cccc(C)n3)n2)cc1	active: 1580 nM
C/C(=N\NC(=S)NC1CCCCC1)c1c(F)cccc1F	inconclusive [activator, single point]
CCOc1ccc(/C=C/C(=O)c2c(O)cc(C)oc2=O)cc1	inconclusive [activator, partial curve]
FC(F)Sc1ccc(NC(=S)NC2CCCCC2)cc1	inconclusive [activator, partial curve, poor fit]
Cc1ccc(-n2nnnc2CN2CCCCC2)cc1	inactive
Cc1ccc(S(=O)(=O)N(C)c2ccc(C(=O)Nc3cccnc3)cc2)cc1	inactive
CCOc1nc(C)ccc1-c1noc(-c2ccco2)n1	inconclusive [activator, partial curve]
O=C(Nc1cccc(F)c1)NC1CCCCC1	inconclusive [activator, partial curve]
Cc1ccccc1NC(=O)C(=O)c1cn(C)c2ccccc12	inconclusive [activator, partial curve]
CCc1ccc(C(=O)Nc2ccc3nc(C)ccc3c2)cc1	active: 2820 nM
CCOC(=O)Cc1csc(NC(=O)CN2CCOCC2)n1	inactive
CSc1ccc(CNc2ccc(C)cc2)cc1	active: 3980 nM
CCn1nnc2sc3c(c2c1=O)CCC(C)C3 (configuration not stated)	inconclusive [activator, partial curve]
O=C(Nc1nsc(-c2ccccc2)n1)c1cccs1	active: 1120 nM
CC(=O)N1CCN(c2ccc(NC(=O)c3ccccc3)cc2)CC1	inconclusive [activator, partial curve]
Cc1nnc(NC(=O)c2ccc3ccccc3c2)s1	active: 1410 nM
O=C(CCC1CCCN(C(=O)C2(c3ccccc3)CC2)C1)N1CCN(c2ccccn2)CC1 (configuration not stated)	inconclusive [activator, partial curve]
COc1ccc(/C=N/Nc2ccccn2)cc1OC	inconclusive [activator, partial curve]
CC(=O)NC(Cc1ccc(F)cc1)C(=O)NC1CCN(C(=O)Nc2cccc(C)c2)CC1 (configuration not stated)	inconclusive [activator, single point]

SMILES	Potency
Cc1ccc(NC(=S)c2nc3ccccc3s2)cc1	active: 2820 nM
Cc1ccc(C)c(NC(=O)N2CCc3ccccc3C2)c1	inconclusive [activator, partial curve]
Cc1ccc2oc(C(=O)NCC(c3ccco3)N(C)C)c(C)c2c1 (configuration not stated)	inconclusive [activator, partial curve]
Cc1cc(/C=N/NC(N)=S)c(C)n1-c1cccc(Cl)c1	inactive
Cn1c(=O)oc2cc(NC(=O)CCl)ccc21	inactive
Cc1ccc(N/N=C/c2ccncc2)cc1	active: 3160 nM
Cn1cccc1CC(=O)N/N=C/c1ccc(C(C)(C)C)cc1	inconclusive [activator, partial curve]
O=C(N/N=C/c1ccccc1)c1n[nH]c2c1CCCC2	active: 355 nM
Fc1ccc(/C=N/Nc2nccnc2Cl)cc1	inconclusive [activator, partial curve]
COCCNc1oc(-c2ccc(Cl)cc2)nc1C#N	inconclusive [activator, partial curve]
O=C(c1ccccc1)c1ccc2n1CCC2C(=O)O (configuration not stated)	inconclusive [activator, partial curve]
COc1cc(C(=O)Oc2ccccc2/C=N/NC(=O)c2ccc(Cl)cc2Cl)cc(OC)c1OC	inconclusive [activator, full curve, poor fit]
Cc1ccc(-c2[nH]n3c(=O)c4c(nc3c2C)CCCC4)cc1	inconclusive [activator, single point]
CCSc1nnc(NC(=O)Nc2cccc(C)c2)s1	inconclusive [activator, partial curve]
O=C(Nc1ccc2c(c1)OCCO2)c1ccc(Br)o1	active: 1580 nM
Cc1ccc(-c2csc(=S)[nH]2)cc1	inconclusive [activator, full curve]
CCCC1CCc2c(sc(NC(=O)c3cccs3)c2C(N)=O)C1 (configuration not stated)	inconclusive [activator, single point]
Cc1ccc(CN2CCN(CC(=O)N/N=C/c3ccccc3F)CC2)cc1	inconclusive [activator, partial curve]
C#CCSc1nnc(-c2ccc(OC)cc2)o1	active: 2820 nM
CCOc1ccc(N(CC(=O)Nc2ccc(C)c(C)c2)S(C)(=O)=O)cc1	inconclusive [activator, single point]
Cc1cccc(-n2ncc3c(NCc4cccnc4)ncnc32)c1	active: 2510 nM

SMILES	Potency
Cc1ccc(C(=O)Nc2ccc(Br)c(C(F)(F)F)c2)cc1	inconclusive [activator, partial curve]
Brc1ccccc1-c1nnc(-c2cccnc2)o1	inconclusive [activator, partial curve]
CC1CCc2[nH]c3ccc(C(=O)NCC4CCCO4)cc3c2C1 (configuration not stated)	inconclusive [activator, partial curve]
O=C(CSc1nnc(COc2ccc(Br)cc2)o1)NC1CCCCC1	inactive
COCCNC(=O)Cn1cnc([N+](=O)[O-])n1	inactive
Cc1[nH]c(=O)[nH]c(=O)c1/C=N/NC(=O)[C@H](C)N	inconclusive [activator, single point]
O=C(CS(=O)(=O)c1ccccc1)N1CCc2ccccc21	active: 2510 nM
Cc1ccc(OCC(=O)NC(=S)Nc2ccccn2)c(Br)c1	active: 2820 nM
N=C1S/C(=C\c2ccco2)C(=O)N1c1nccs1	inconclusive [activator, partial curve]
COc1ccc(C(=O)NCCNc2nc3ccc(C)cc3cc2C#N)cc1OC	inactive
O=C(Nc1ccc(F)cc1)C1CCC(CNc2c(N3CCCCC3)c(=O)c2=O)CC1 (configuration not stated)	inactive
CCOc1ccc(CCNC(=O)CSC(=S)N2CCCC2)cc1OCC	inactive
O=[N+]([O-])c1cccnc1Oc1ccc(C2SCCS2)cc1	inconclusive [activator, single point]
CCCCCCCC1c2c(c(C)c(C)oc2=O)Oc2c(C)c(C)oc(=O)c21	inactive
CC(=O)NNc1nc(-c2ccc(C)cc2)cs1	inconclusive [activator, partial curve]
Cc1ccc(N2NC(C)(c3cccs3)NC2=S)cc1 (configuration not stated)	active: 3550 nM
COc1cc(/C=C/C(=O)O)cc(S(=O)(=O)NCC2CCCO2)c1OC (configuration not stated)	inactive
COC(=O)c1cc2c(ccn2-c2ccc(F)cc2)n1Cc1ccc(OC)cc1	inactive
COc1ccc(CNc2ccc3c(c2)nc(C)n3C)cc1	active: 1410 nM
